Test results taken from ChEMBL document CHEMBL4888484, “Replenishing the malaria drug discovery pipeline: Screening and hit evaluation of the MMV Hit Generation Library 1 (HGL1) against asexual blood stage Plasmodium falciparum ,using a nano luciferase reporter read-out” (2022).
The campaign covered roughly 150,000 compounds. About 540 (0.36%) showed an effect of 50% or more. This is one part of the list. Where a SMILES comes first, the peptide text is derived from it. The star is where a group is joined. Boc = CC(C)(C)OC(=O)*; NHBn = c1ccc(CN*)cc1

What follows are molecules tested on Plasmodium falciparum (assay: Primary screen in NF54 nanoGlo assay, in single point, at 2uM, 72h; a lower Z score goes with more inhibition). Conditions: timepoint 72 hour.
Type: functional, Erythrocyte

Structure (SMILES) | % Inhibition | Z score
COc1ccc(C(=O)N2c3cc(CNS(=O)(=O)c4cccs4)ccc3C[C@@H]2C)cc1 | -8% | 0.85
Cc1c(CCO)c(=O)n(-c2ccccc2)n1S(=O)(=O)c1c(Cl)cc(Cl)cc1Cl | 39% | -1.11
CN(C[C@]1(O)CCc2ccccc21)C(=O)NCCc1ccccn1 | -10% | 1.42
O=C(NCC#CCOc1cccc(C(F)(F)F)c1)c1ccno1 | -9% | 1.34
Cc1cc(O[C@H]2CCCN(S(=O)(=O)Cc3cccc(F)c3)C2)nc(C)n1 | 15% | -2.12
O=C(Nc1cnccc1O)C1CC1c1ccccc1C(F)(F)F (centres undefined) | 0% | 0.04
Cc1nc(-c2ccc(C(F)(F)F)cc2)nc(N2CCN(C(=O)c3cc(C(F)(F)F)cc(C(F)(F)F)c3)CC2)c1C(C)C | 35% | -0.64
CN(C[C@H]1COCCO1)C(=O)Nc1ccc(-c2ccco2)cc1 | -20% | 1.74
CC(=O)Oc1c(-c2ccc(NC(=O)CC(C)C)cc2)c(-c2ccc(N(C)C)cc2)nn1-c1ccc(F)cc1 | 20% | -2.46
Cc1nnc(CN(CCC(F)(F)F)C2CCC2)o1 | 5% | -0.76
CO[C@H]1CCCN(C(=O)c2cc(Cl)ccc2OC2CCN(C3CCCC3)CC2)C1 | -1% | 0.22
CN(Cc1cc(C2CC2)[nH]n1)Cc1ccccc1C(=O)O | -19% | 2.47
Cc1cc(F)cc(-c2c(-c3ccccc3)ncn2Cc2nnc3ccccn23)c1 | 21% | -2.71
O=C(NCc1cccnc1N1CCOCC1)Nc1ccccn1 | -2% | 0.37
COC[C@H]1CCCN1C(=O)c1cc2c(Cl)cccc2[nH]1 | -2% | 0.44
COCCNCCNc1ccc(F)cc1 | -15% | 2.39
CC(C)C1=NO[C@H](c2ncnn2CC(C)(C)O)C1 | 9% | -1.16
COCCN1CCN(c2nc(-c3ccc(F)c(Cl)c3)c3c(N)n(-c4ccccc4Cl)nc3n2)CC1 | -13% | 1.71
CC(Cn1cccn1)NC1CN(C(=O)OCc2ccccc2)C[C@H]1O (some centres undefined) | 0% | 0.04
CN1CCN(CCC(C)(C)NCc2ccc(Cl)cc2F)CC1 | 1% | -0.27
CC(C)(C)OC(=O)NC(Cc1ccccc1)C(=O)N1CCCC1C(=O)NCc1ccccc1 (stereo not drawn) (Boc-Phe-Pro-NHBn; configuration not given here) | 10% | -0.93
Cc1oc2ccccc2c1CCNC(=O)N1CCC(C(F)(F)F)C(CN)C1 (centres undefined) | -3% | 0.31
Cc1cc(F)ccc1CC(=O)N[C@H]1CC[C@@H]2CCC[C@@H]21 | -10% | 1.08
Cc1ccn(CCc2ccc3c(c2)CCO3)c(=O)c1C#N | -18% | 1.54
CCCNc1ncc(CN2CCn3nc(C#N)cc3C2)cn1 | -8% | 1.39
NC(=O)[C@H]1CCN(C(=O)Nc2nc(-c3ccccc3)cs2)C1 | -2% | 0.37

Structure (SMILES) | % Inhibition | Z score
Cc1cc(OCc2cc(C(=O)N(Cc3nccn3C)C(C)C)no2)cc(C)c1Cl | -16% | 2.71
Cc1ccsc1-c1nccn1-c1ccc2[nH]nnc2c1 | 1% | -0.13
CC[C@@H](C(=O)N(CC)Cc1nn(-c2ccccc2)c2c1CN(Cc1cc(F)ccc1F)CC2)c1ccccc1 | -5% | 0.74
Cc1cccc(CN2CCN(Cc3cccc4cccnc34)C[C@@H]2CCO)n1 | -17% | 1.55
CC(CC(=O)N1CC(C)OCC1c1ccccc1)NC(=O)C1CCCC1 (centres undefined) | -3% | 0.3
O=c1c2cccn2cnn1CCCOCc1ccccc1 | -18% | 2.33
C[C@H](NC(=O)NCC1CCCC1)C1CC1 | 10% | -1.69
Cc1ccc(NC(=O)N2CCC[C@H](Cn3cnc4cccnc43)C2)c(C)c1 | -11% | 1.61
O=C(Nc1nc2cc3c(cc2s1)OCCO3)c1ccc(S(=O)(=O)N2CCCCCC2)cc1 | -13% | 2.43
Cc1ccc(CN2C[C@H](OC(C)C)[C@@H](O)C2)s1 | -9% | 1.29
O=C(Cc1nnc(-c2cnccn2)o1)Nc1cc(F)ccc1F | -11% | 1.08
CC1(C(=O)NC2CCCCCC2)Cn2c(nc3ccccc32)C(=O)N1CC1CCCO1 (centres undefined) | -17% | 1.61
COC(=O)c1cccc2nc([C@H]3CCN(C4CCOCC4)C3)oc12 | 11% | -1.22
CC(C)CCN(CCC(=O)N1CCNCC1)C(=O)c1ccc(F)c(Cl)c1 | -3% | 0.36
CC(C)Oc1ccc2c(NC(=O)[C@@H]3CCCC(=O)N3)nn(CC(F)(F)F)c2c1 | -7% | 0.84
COc1ncc(CNc2c(F)cccc2NC(C)C)c(C)n1 | 2% | -0.23
CN1CC[C@@]2(CCC1=O)CN(C(=O)CCc1ccsc1)CCN2C | -18% | 2.27
CO[C@H]1[C@H](NC(=O)Cc2ccccc2)c2ccccc2C12CCNCC2 | -6% | 1.03
C[C@H](O)c1cccc(-c2ccccc2CN2CCOCC2)n1 | -7% | 1.3
COc1ccccc1OC[C@@H](C)CNC(=O)N1CCC1 | -1% | 0.18
Cn1c(NC(=O)c2cccs2)c(-c2ccc(Cl)cc2)c(=O)c2ccccc21 | 0% | 0.04
O=C1CC2C(=O)CC1C1C(=O)N(c3ccc(Cl)c(Cl)c3)C(=O)C21 (centres undefined) | -3% | 0.32
O=C(NC[C@H](O)COc1cccc(Cl)c1Cl)c1c(F)c(F)cc(F)c1F | 6% | -0.88
CN(Cc1cccs1)c1nn2cc(C(C)(C)C)nc2s1 | -3% | 0.31
COc1ccccc1OCc1ccc(C(=O)NC2CCCCC2)cc1 | -35% | 4.08
CN1C[C@]2(CCN(Cc3nc(-c4ccc(Cl)cc4)no3)C2)OC1=O | -1% | 0.1
